Source: PubChem BioAssay AID1346428 (National Center for Advancing Translational Sciences (NCATS), 2018)
Hit rate of the full screen: of about 48,000 compounds, about 1,200 (2.5%) were called active. Another 2% or so got no clear call; they are omitted.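 How the source made its calls: active means activation of at least 60% and not above a set upper limit (about 1 call in 100 departs from these limits); inconclusive means activation of 40% to 60%, or above that upper limit; inactive means activation under 40%.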 The list shows a part of the results.

Each molecule was assayed against Probable G-protein coupled receptor 32 (Homo sapiens) (UniProt O75388) (assay: qHTS for Agonists of Human Resolvin D1 Receptor DRV1). Conditions: CHO-K1 GPR32 beta-arrestin PathHunter luminescence, 90 min; at 76.9 µM; stronger effect = higher value; zero percent set by DMSO-only wells.
Chain of UniProt O75388 (O75388 whole entry, looked up): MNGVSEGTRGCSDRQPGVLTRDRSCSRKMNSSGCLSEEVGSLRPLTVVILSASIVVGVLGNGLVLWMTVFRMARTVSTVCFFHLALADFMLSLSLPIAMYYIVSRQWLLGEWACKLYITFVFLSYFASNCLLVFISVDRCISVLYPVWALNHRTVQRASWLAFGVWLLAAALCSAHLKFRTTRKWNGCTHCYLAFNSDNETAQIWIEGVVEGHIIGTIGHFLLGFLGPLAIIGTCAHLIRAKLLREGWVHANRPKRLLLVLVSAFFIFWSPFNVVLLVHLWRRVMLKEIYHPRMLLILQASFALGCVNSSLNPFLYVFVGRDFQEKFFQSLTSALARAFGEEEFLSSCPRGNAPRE
Procedure, shortened: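 Using DMSO wells as EC0, agonist-induced signal was taken as chemiluminescence from beta-Gal reconstituted upon beta-arrestin recruitment to GPR32 in CHO-K1 cells after 90 min compound treatment.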

activation, inactive:
Cc1ccc(-c2nnc3ccccc3c2C(=O)Nc2cccc(Cl)c2)cc1 -9.41%
COc1ccc(NC(=O)c2cc3cc(C)ccc3n2C)cc1 1.78%
COc1ccc(C)cc1N(C)C(=O)c1c(C)oc2ncnc(N3CCOCC3)c12 -17%
COc1cccc(NC(=O)CN(C)S(=O)(=O)c2ccc3nc(C)sc3c2)c1 -4.06%
CN(c1ccc(Cl)cc1)S(=O)(=O)c1nnc(NC(=O)C2CCCCC2)s1 -7.67%
COc1cc(C(=O)Oc2c(Sc3ccc(C)cc3)c(C)nn2-c2ccccc2)cc(OC)c1OC -8.21%
CCNC(=O)c1cnc2sc(N3CCCCCC3)nn2c1=O 2.83%
COC(=O)c1c(C)sc(-c2c(-c3ccc4c(c3)OCCO4)[nH]c3c2c(=O)n(C)c(=O)n3C)c1O -21%
CCOc1ccccc1NC(=O)c1c(NC(=O)c2ccccc2C)sc2c1CCC(C)C2 (centres undefined) -28.9%
COC(=O)c1n[nH]n(-c2ccccc2)c1=O -9.54%
Nc1nnc(SCC(=O)Nc2ccccc2C(F)(F)F)s1 -13%
O=C(NCCc1ccc(Cl)cc1)c1ccc(CS(=O)Cc2cccc(Cl)c2)o1 (centres undefined) 4.76%
CCC(C)NC(=O)c1cnn(-c2ccc(Cl)cc2)c1C1CCN(C(=O)OC(C)(C)C)CC1 (centres undefined) -9.11%
Cc1cccc(NC(=O)C2CCCN(S(=O)(=O)c3cnc[nH]3)C2)c1C (centres undefined) -2.23%
Cc1ccc2c(c1)cc(C(=O)Nc1ccc(F)cc1F)n2C 1.01%
CN(C1CCCCC1)S(=O)(=O)c1ccc2c(c1)c(=O)c(C(=O)NCCc1ccccc1)cn2C -20.3%
Cc1ccn2c(Nc3ccc4c(c3)OCCO4)c(-c3ccc(Cl)s3)nc2c1 -27.7%
Cc1oc(-c2ccc(C(=O)Nc3cc(F)ccc3F)cc2)nc1COc1ccccc1 26.5%
Cn1c(=O)c2cc(C(=O)N3CCN(c4ccc(Cl)cc4)CC3)sc2c2ccccc21 12.8%
CCOC(=O)c1cc(NC(=O)c2ccc(F)cc2)c(=O)n2c1oc1ccccc12 -0.147%
Cc1ccc(C(=O)N(Cc2ccc(N(C)C)cc2)Cc2ccco2)cc1 -23.7%
O=C(Nc1cccc(Cl)c1Cl)c1ccc2c(c1)N(Cc1cccc(Cl)c1)C(=O)c1ccccc1S2(=O)=O -30.6%
Cc1nc2nc(NCc3cccc(Br)c3)[nH]n2c(=O)c1Cc1ccccc1 2.22%
COc1cc2ccccc2cc1C(=O)Nc1cccc(-c2nc3cc(C)c(C)cc3o2)c1C -7.95%
